Measured values reported in patent publication US20240207396A1 (priority 2021, published 2024).

System: Th17 cells (cytokine IL-17F)
Experiment: Immunological experiment of oligosaccharide vaccine: intracellular IL-17F level of Th17 detected by flow cytometry in immunocompromised (neutropenia) mice
Text: The effectiveness of the vaccine was studied by using an immunocompromised (neutropenia) mouse model. This neutropenia mouse model was considered a suitable model, which can be used for simulating patients developing such deficiency due to treatment of various malignant tumors, chemotherapy and the like. Immune impairment induced by cyclophosphamide injection in mice would increase the sensitivity to fungi, which was similar to the increased susceptibility of neutropenia patients to the disease. To investigate the T cell-mediated immune response, mouse blood was taken and detected for a change in cytokine IL-17F level in Th17 cells to evaluate the immunogenicity of chitosan oligosaccharide-carrier protein vaccine.
6-8-week-old Balb/c female mice were selected, and adaptively fed for 3-7 d. 20 g/L cyclophosphamide was prepared with normal saline, and the cyclophosphamide was injected intraperitoneally by body weight of 200 mg/kg. The number of neutrophils in the mouse blood was measured by a SYSMEX XT-2000i automatic blood analyzer after 3 days. If the number of the neutrophils was <500/mm^3, the experiment could be continued. After that, the cyclophosphamide was injected every 10 days at a dose of 150 mg/kg, which was maintained throughout the test period.
A normal saline blank control group, a KLH group, a chitosan oligosaccharide group, a chitosan oligosaccharide-KLH group in Example 6, a fluconazole group (as a positive control of a challenge test) were set up, with 10 mice in each group. At weeks 0, 2, 4 and 6 at the start of the experiment, the mice were injected subcutaneously from multiple points on the neck and back, with an injection amount of 2.5 mg/kg. The normal saline blank group was injected with normal saline, and the fluconazole group was not injected. The mice were intragastrically administrated by 50 mg/kg d at week 6 for 7 consecutive days. The other groups were injected with tested samples containing adjuvants.
In order to stimulate the organism to produce a strong immune response, Freund's adjuvants were selected. […]

Question: Which “Proportion of Intracellular IL-17F to Th17, After immunization” value (after the immunization at week 6, 2.5 mg/kg s.c. at weeks 0, 2, 4, 6 with Freund's adjuvants, x ± s, n = 10) does the source give for keyhole limpet hemocyanin [KLH] here?
Answer: 1.486 ± 0.355%

Question: And the “Proportion of Intracellular IL-17F to Th17, Before immunization” value (blood lymphocytes before the immunization at week 0, immunocompromised Balb/c mice, x ± s, n = 10)?
Answer: 1.456 ± 0.361%

Question: What about the “Change of proportion of intracellular IL-17F to Th17 after immunization compared with before immunization” value (in words, vs. before immunization) of the same substance?
Answer: increased, but the effect was not significant
